# The list shows a part of the results.
# B1: AAA (Anguilla anguilla), Q7SIC1 (protein)
# chain: VIPEGYTQENVAVRGKATQSAQLRGEHAANSEASNAIDGNRDSNFYHGSCTHSSGQANPWWRVDLLQVYTITSVTITNRGDCCGERISGAEINIGQHLASNGVNNPECSVIGSMATGETKTFHCPAPMIGRYVVTYLPTSESLHLCEVEVNVDKPAAA
# What was measured:
# Assay in all cases: glycan array binding signal (z-score within array); higher = stronger binding
# Conditions in all cases: glycan notation: IUPAC condensed, linker removed
# Gal(b1-2)Gal = molecular target: Gal(b1-2)Gal
# Method in brief: (§1)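 Columns mapping to the same glycan were averaged after glycan names were converted to IUPAC-condensed notation. The data come from 3228 arrays in the Consortium for Functional Glycomics database, limited to those with an available protein sequence. Binding is reported as a within-array Z-score averaged across arrays of one protein sequence and across linkers.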
# Gal(b1-3)Gal = molecular target: Gal(b1-3)Gal
# Method in brief: as §1
# Gal(b1-3)Gal(b1-4)GlcNAc = molecular target: Gal(b1-3)Gal(b1-4)GlcNAc
# Method in brief: as §1
# Gal(b1-3)GalNAc = molecular target: Gal(b1-3)GalNAc
# Method in brief: as §1
# [1] = molecular target: Gal(b1-3)GalNAc(a1-3)[Fuc(a1-2)]Gal(b1-4)Glc
# Method in brief: as §1
# [2] = molecular target: Gal(b1-3)GalNAc(a1-3)[Fuc(a1-2)]Gal(b1-4)GlcNAc
# Method in brief: as §1
# Gal(b1-3)GalNAc(b1-3)Gal = molecular target: Gal(b1-3)GalNAc(b1-3)Gal
# Method in brief: as §1
# [3] = molecular target: Gal(b1-3)GalNAc(b1-3)Gal(a1-4)Gal(b1-4)Glc
# Method in brief: as §1
# [4] = molecular target: Gal(b1-3)GalNAc(b1-3)Gal(b1-4)Glc
# Method in brief: as §1
# [5] = molecular target: Gal(b1-3)GalNAc(b1-3)Gal(b1-4)GlcNAc
# Method in brief: as §1
# [6] = molecular target: Gal(b1-3)GalNAc(b1-4)Gal(b1-4)Glc
# Method in brief: as §1
# [7] = molecular target: Gal(b1-3)GalNAc(b1-4)[Neu5Ac(a2-3)]Gal(b1-4)Glc
# Method in brief: as §1
# Gal(b1-3)GlcNAc = molecular target: Gal(b1-3)GlcNAc
# Method in brief: as §1
# [8] = molecular target: Gal(b1-3)GlcNAc(a1-3)Gal(b1-4)GlcNAc
# Method in brief: as §1
# [9] = molecular target: Gal(b1-3)GlcNAc(a1-6)Gal(b1-4)GlcNAc
# Method in brief: as §1
# Gal(b1-3)GlcNAc(b1-2)Man = molecular target: Gal(b1-3)GlcNAc(b1-2)Man
# Method in brief: as §1
# [10] = molecular target: Gal(b1-3)GlcNAc(b1-2)Man(a1-3)[Gal(b1-3)GlcNAc(b1-2)Man(a1-6)]Man(b1-4)GlcNAc(b1-4)GlcNAc
# Method in brief: as §1
# [11] = molecular target: Gal(b1-3)GlcNAc(b1-2)Man(a1-3)[Gal(b1-3)GlcNAc(b1-2)Man(a1-6)]Man(b1-4)GlcNAc(b1-4)[Fuc(a1-6)]GlcNAc
# Method in brief: as §1
# [12] = molecular target: Gal(b1-3)GlcNAc(b1-2)Man(a1-3)[GlcNAc(b1-4)][Gal(b1-3)GlcNAc(b1-2)Man(a1-6)]Man(b1-4)GlcNAc(b1-4)GlcNAc
# Method in brief: as §1
# [13] = molecular target: Gal(b1-3)GlcNAc(b1-2)[Gal(b1-3)GlcNAc(b1-6)]Man(a1-6)[Gal(b1-3)GlcNAc(b1-2)Man(a1-3)]Man(b1-4)GlcNAc(b1-4)GlcNAc
# Method in brief: as §1
# [14] = molecular target: Gal(b1-3)GlcNAc(b1-3)Gal(b1-3)GlcNAc
# Method in brief: as §1
# [15] = molecular target: Gal(b1-3)GlcNAc(b1-3)Gal(b1-4)Glc
# Method in brief: as §1
# [16] = molecular target: Gal(b1-3)GlcNAc(b1-3)Gal(b1-4)GlcNAc
# Method in brief: as §1
# [17] = molecular target: Gal(b1-3)GlcNAc(b1-3)Gal(b1-4)GlcNAc(b1-2)Man(a1-3)[Gal(b1-3)GlcNAc(b1-3)Gal(b1-4)GlcNAc(b1-2)Man(a1-6)]Man(b1-4)GlcNAc(b1-4)GlcNAc
# Method in brief: as §1
# [18] = molecular target: Gal(b1-3)GlcNAc(b1-3)Gal(b1-4)GlcNAc(b1-2)[Gal(b1-3)GlcNAc(b1-3)Gal(b1-4)GlcNAc(b1-6)]Man(a1-6)[Gal(b1-3)GlcNAc(b1-3)Gal(b1-4)GlcNAc(b1-2)Man(a1-3)]Man(b1-4)GlcNAc(b1-4)[Fuc(a1-6)]GlcNAc
# Method in brief: as §1
# [19] = molecular target: Gal(b1-3)GlcNAc(b1-3)Gal(b1-4)GlcNAc(b1-3)Gal(b1-4)GlcNAc(b1-2)[Gal(b1-3)GlcNAc(b1-3)Gal(b1-4)GlcNAc(b1-3)Gal(b1-4)GlcNAc(b1-6)]Man(a1-6)[Gal(b1-3)GlcNAc(b1-3)Gal(b1-4)GlcNAc(b1-3)Gal(b1-4)GlcNAc(b1-2)Man(a1-3)]Man(b1-4)GlcNAc(b1-4)[Fuc(a1-6)]GlcNAc
# Method in brief: as §1
# [20] = molecular target: Gal(b1-3)GlcNAc(b1-3)Gal(b1-4)GlcNAc(b1-6)[Gal(b1-3)GlcNAc(b1-3)]Gal(b1-4)Glc
# Method in brief: as §1
# [21] = molecular target: Gal(b1-3)GlcNAc(b1-3)Gal(b1-4)[Fuc(a1-3)]GlcNAc
# Method in brief: as §1
# [22] = molecular target: Gal(b1-3)GlcNAc(b1-3)Gal(b1-4)[Fuc(a1-3)]GlcNAc(b1-6)[Gal(b1-3)GlcNAc(b1-3)]Gal(b1-4)Glc
# Method in brief: as §1
# [23] = molecular target: Gal(b1-3)GlcNAc(b1-3)GalNAc
# Method in brief: as §1
# [24] = molecular target: Gal(b1-3)GlcNAc(b1-6)Gal(b1-4)GlcNAc
# Method in brief: as §1
# [25] = molecular target: Gal(b1-3)GlcNAc(b1-6)GalNAc
# Method in brief: as §1
# [26] = molecular target: Gal(b1-3)GlcNAc(b1-6)[Gal(b1-3)]GalNAc
# Method in brief: as §1
# Gal(b1-3)GlcNAc6S = molecular target: Gal(b1-3)GlcNAc6S
# Method in brief: as §1
# [27] = molecular target: Gal(b1-3)[Fuc(a1-4)]GlcNAc
# Method in brief: as §1
# [28] = molecular target: Gal(b1-3)[Fuc(a1-4)]GlcNAc(b1-2)Man
# Method in brief: as §1
# [29] = molecular target: Gal(b1-3)[Fuc(a1-4)]GlcNAc(b1-2)Man(a1-3)[Gal(b1-3)[Fuc(a1-4)]GlcNAc(b1-2)Man(a1-6)]Man(b1-4)GlcNAc(b1-4)[Fuc(a1-6)]GlcNAc
# Method in brief: as §1
# [30] = molecular target: Gal(b1-3)[Fuc(a1-4)]GlcNAc(b1-3)Gal(b1-3)[Fuc(a1-4)]GlcNAc
# Method in brief: as §1
# [31] = molecular target: Gal(b1-3)[Fuc(a1-4)]GlcNAc(b1-3)Gal(b1-4)GlcNAc
# Method in brief: as §1
# [32] = molecular target: Gal(b1-3)[Fuc(a1-4)]GlcNAc(b1-3)Gal(b1-4)[Fuc(a1-3)]GlcNAc
# Method in brief: as §1
# [33] = molecular target: Gal(b1-3)[Fuc(a1-4)]GlcNAc(b1-6)GalNAc
# Method in brief: as §1
# [34] = molecular target: Gal(b1-3)[GlcNAc(b1-6)]GalNAc
# Method in brief: as §1
# [35] = molecular target: Gal(b1-3)[GlcNAc(b1-6)]GlcNAc
# Method in brief: as §1
# [36] = molecular target: Gal(b1-3)[Neu5Ac(a2-6)]GalNAc
# Method in brief: as §1
# [37] = molecular target: Gal(b1-3)[Neu5Ac(a2-6)]GlcNAc
# Method in brief: as §1
binder,measurement,setting,value
B1,glycan array binding signal (z-score),Gal(b1-2)Gal,-0.184
same,glycan array binding signal (z-score),Gal(b1-3)Gal,-0.043
same,glycan array binding signal (z-score),Gal(b1-3)Gal(b1-4)GlcNAc,-0.117
same,glycan array binding signal (z-score),Gal(b1-3)GalNAc,0.365
same,glycan array binding signal (z-score),[1],-0.279
same,glycan array binding signal (z-score),[2],0.026
same,glycan array binding signal (z-score),Gal(b1-3)GalNAc(b1-3)Gal,-0.155
same,glycan array binding signal (z-score),[3],-0.051
same,glycan array binding signal (z-score),[4],0.237
same,glycan array binding signal (z-score),[5],-0.758
same,glycan array binding signal (z-score),[6],-0.284
same,glycan array binding signal (z-score),[7],-0.122
same,glycan array binding signal (z-score),Gal(b1-3)GlcNAc,-0.187
same,glycan array binding signal (z-score),[8],-0.27
same,glycan array binding signal (z-score),[9],-0.192
same,glycan array binding signal (z-score),Gal(b1-3)GlcNAc(b1-2)Man,-0.151
same,glycan array binding signal (z-score),[10],-0.149
same,glycan array binding signal (z-score),[11],-0.043
same,glycan array binding signal (z-score),[12],-0.119
same,glycan array binding signal (z-score),[13],-0.18
same,glycan array binding signal (z-score),[14],-0.126
same,glycan array binding signal (z-score),[15],-0.169
same,glycan array binding signal (z-score),[16],-0.173
same,glycan array binding signal (z-score),[17],-0.223
same,glycan array binding signal (z-score),[18],0.216
same,glycan array binding signal (z-score),[19],-0.041
same,glycan array binding signal (z-score),[20],-0.172
same,glycan array binding signal (z-score),[21],-0.057
same,glycan array binding signal (z-score),[22],-0.209
same,glycan array binding signal (z-score),[23],-0.246
same,glycan array binding signal (z-score),[24],-0.196
same,glycan array binding signal (z-score),[25],-0.239
same,glycan array binding signal (z-score),[26],-0.275
same,glycan array binding signal (z-score),Gal(b1-3)GlcNAc6S,-0.306
same,glycan array binding signal (z-score),[27],-0.126
same,glycan array binding signal (z-score),[28],-0.089
same,glycan array binding signal (z-score),[29],0.182
same,glycan array binding signal (z-score),[30],0.164
same,glycan array binding signal (z-score),[31],-0.092
same,glycan array binding signal (z-score),[32],-0.281
same,glycan array binding signal (z-score),[33],-0.081
same,glycan array binding signal (z-score),[34],0.146
same,glycan array binding signal (z-score),[35],-0.011
same,glycan array binding signal (z-score),[36],-0.106
same,glycan array binding signal (z-score),[37],-0.743
